# Measurements as given in PubChem BioAssay AID1030 (National Center for Advancing Translational Sciences (NCATS), 2008).
# Where “and” joins values, the source holds several entries; their conditions need not be identical. Identical values can stand only once. Screen size: about 220,000 compounds; about 16,000 (7.3%) were called active. The shares of active, inactive and inconclusive entries below differ from those in the screen. The call rests on the fitted dose curve; in most records, active means well fitted inhibition curve with a large enough effect (not every such curve was filed as active); inconclusive means small, poorly fitted or top-dose-only effect, or another doubt; inactive means no such curve, though single readings can be large or run the other way. No potency is given beside an inconclusive call; the fits are too rough. The source holds several records for some structures; these can differ, active in one and inactive in another.
# Target: Aldehyde dehydrogenase 1A1 (Homo sapiens) (UniProt P00352)
# Experiment: qHTS Assay for Inhibitors of Aldehyde Dehydrogenase 1 (ALDH1A1)
# Conditions: Purified ALDH1A1, NADH fluorescence, propionaldehyde substrate; series mostly up to 75.3 µM
# Potency means the concentration at half of the fitted maximal effect; tags describe the fitted curve by direction and shape.
# Chain of UniProt P00352 (P00352 whole entry, looked up): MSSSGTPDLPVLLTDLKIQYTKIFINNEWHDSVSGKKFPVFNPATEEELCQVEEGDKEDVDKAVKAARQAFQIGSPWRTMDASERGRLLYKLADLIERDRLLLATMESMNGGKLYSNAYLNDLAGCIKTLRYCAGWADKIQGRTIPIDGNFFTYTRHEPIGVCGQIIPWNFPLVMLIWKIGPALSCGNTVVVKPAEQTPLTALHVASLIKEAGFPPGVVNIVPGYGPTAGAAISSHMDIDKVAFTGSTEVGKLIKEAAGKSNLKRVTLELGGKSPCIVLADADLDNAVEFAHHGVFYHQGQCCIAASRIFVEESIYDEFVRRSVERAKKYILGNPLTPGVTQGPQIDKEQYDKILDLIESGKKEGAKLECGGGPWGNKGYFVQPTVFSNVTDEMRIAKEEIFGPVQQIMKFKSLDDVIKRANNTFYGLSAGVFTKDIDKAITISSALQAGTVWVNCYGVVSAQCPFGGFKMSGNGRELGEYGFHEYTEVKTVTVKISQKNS
row,Compound,Potency
1,CC1CC2(C)Oc3ccccc3C3OCC1(COC(=O)Nc1ccccc1)C(C)C32 (stereo not given),inactive
2,CCN=C(N/N=C/c1ccc([N+](=O)[O-])cc1)SC,"inconclusive [inhibitor, single point]"
3,CCOC(=O)N1CCN(c2nc(C)cc(C(F)(F)F)n2)CC1,"inconclusive [inhibitor, single point]"
4,COc1ccc(CC(=O)N2N=C(C)CC2(O)c2cccnc2)cc1 (stereo not given),inactive
5,Cc1cc(NC(=O)CC23CC4CC(C2)CC(CC(=O)Nc2cc(C)on2)(C4)C3)no1,"inconclusive [inhibitor, single point]"
6,CN(C)c1ccc(/C=C2/C(=O)N(c3ccc([N+](=O)[O-])cc3)N=C2N2CCOCC2)cc1,active: 1.26 µM
7,COc1ccc(-c2csc(Cc3nc(O)cs3)n2)cc1,"inconclusive [inhibitor, single point]"
8,CNC(=S)NNc1nncc2ccccc12,"inconclusive [inhibitor, full curve]"
9,COc1ccc(C2/C=C\CC(OCc3ccccc3)CC(=O)N2Cc2cccc(F)c2)cc1 (stereo not given),"inconclusive [inhibitor, partial curve]"
10,O=c1[nH]c(SCc2ccccc2Cl)nc2[nH]ncc12,inactive
11,Cc1ccc(S(=O)(=O)N2CCN(CC(=O)Nc3ccc([N+](=O)[O-])cc3)CC2)cc1C,"inconclusive [inhibitor, single point]"
12,COc1cc(/C=N/NC(=O)COc2ccc(-n3cnnn3)cc2)ccc1OCC(N)=O,inactive
13,O=C(c1ccccc1)C(CCC(CN1CCOCC1)C(=O)c1ccccc1)CN1CCOCC1 (stereo not given),"inconclusive [inhibitor, single point]"
14,CCCCOc1ccc(C(=O)N/C(=C/C=C/c2ccccc2)C(=O)NC)cc1,"inconclusive [inhibitor, single point]"
15,N#CCc1c(C#N)c(N)nc(N2CCCC(CO)C2)c1C#N (stereo not given),"inconclusive [inhibitor, partial curve, poor fit]"
16,COc1ccc(NC(=O)CCN2CCCCCC2)cc1,"inconclusive [inhibitor, single point]"
17,O=C(CSc1ncn[nH]1)Nc1ccccc1-c1ccccc1,"inconclusive [inhibitor, single point]"
18,CCOC(=O)c1c(-c2cccc([N+](=O)[O-])c2)csc1NC(=O)C1CCCCC1,"inconclusive [inhibitor, partial curve]"
19,CCOCC(=O)N(CC)Cc1ccccc1,"inconclusive [inhibitor, single point]"
20,CCc1cc2c(=O)n(CCC(C)C)c(=S)[nH]c2s1,active: 15.8 µM
21,O=c1c(Oc2ccccc2F)coc2cc(OCc3cnn(-c4ccccc4)c3)ccc12,"inconclusive [inhibitor, partial curve]"
22,COc1cc(/C=C/C(=O)CC(=O)/C=C/c2ccc(O)c(OC)c2)ccc1O,inactive and active: 28.2 µM and active: 8.91 µM
23,CCOC(=O)c1cc(C#N)c(NCc2ccccc2)nc1C,"inconclusive [inhibitor, single point]"
24,O=C(N[C@@H](Cc1ccccc1)c1nc2ccccc2[nH]1)c1cc([N+](=O)[O-])ccc1Cl,"inconclusive [inhibitor, single point]"

row,Compound,Potency
1,O=C(Nc1ccc2c(c1)OCCO2)c1cccc(S(=O)(=O)N2CCOCC2)c1,"inconclusive [inhibitor, single point]"
2,Cc1cccc(CS(=O)(=O)c2nnc([C@H](Cc3ccccc3)NC(=O)OC(C)(C)C)o2)c1,active: 22.4 µM
3,CCOc1ccc(OCC)c(NC(=O)CN2CCN(c3cc(C)ccc3C)CC2)c1,active: 3.55 µM
4,O=C(c1cccs1)N1CCC(c2nc3ccccc3s2)CC1,"inconclusive [inhibitor, single point]"
5,O=C(CN1CCN(c2ccccc2O)CC1)Nc1ccc([N+](=O)[O-])cc1Br,"inconclusive [inhibitor, single point]"
6,COCC(=O)N1CCCC(C(=O)c2ccc(-c3ccccc3)c(F)c2)C1 (stereo not given),inactive
7,COc1ccc(N(CC(=O)NN=C2CCCCCCC2)S(=O)(=O)c2ccccc2)cc1Cl,"inconclusive [inhibitor, single point]"
8,Cc1ccc(-n2c(C)cc(/C=N/NC(=O)CC3(C)OCCO3)c2C)cc1,"inconclusive [inhibitor, single point]"
9,CC(=O)Nc1ccc(C(=O)CS(=O)(=O)c2ccc(C)cc2)cc1,"inconclusive [inhibitor, single point]"
10,CC(=O)c1c(C(C)=O)c(C)n(-c2ccc(N)c(C)c2)c1C,inactive
11,COC(=O)C1CCN(c2nc3ccccc3nc2C(C#N)C(=O)NCCc2ccccc2)CC1 (stereo not given),inactive
12,O=C(N/N=C/c1ccco1)c1ccc2nc[nH]c2c1,inactive
13,CCC1CCC/C1=N\NC(=O)CCC(=O)Nc1ccccc1Cl (stereo not given),inactive
14,CCOc1ccc(C2C(C#N)=C(N)SC(N)=C2C#N)c(OCC)c1,active: 17.8 µM
15,COc1ccccc1N1CCN(C(=O)COc2ccc(C)cc2Br)CC1,"inconclusive [inhibitor, single point]"
16,C=CCNC(=O)c1ccccc1NS(=O)(=O)c1ccc(SC)cc1,"inconclusive [inhibitor, single point]"
17,Cc1cccc(NC(=O)c2sc(-c3ccccc3)nc2-c2ccc([N+](=O)[O-])cc2)c1,"inconclusive [inhibitor, single point]"
18,CCOC(=O)C1(Cc2cccc(OC)c2)CCN(Cc2cnc(SC)nc2)CC1,inactive
19,Cn1c(CNC(=O)c2ccco2)nnc1SCC(=O)Nc1c(F)cc(F)cc1Br,"inconclusive [inhibitor, single point]"
20,CCn1c(SCC(=O)N/N=C/c2ccc(C)s2)nc2ccccc21,"inconclusive [inhibitor, single point]"
21,Cc1cc2nc3c(=O)[nH]c(=O)nc-3n(CC(O)C(O)C(O)COP(=O)(O)O)c2cc1C (stereo not given),inactive
22,CC(=O)c1cccc(NC(=O)CCNS(=O)(=O)c2cccc3nonc23)c1,"inconclusive [inhibitor, single point]"
23,Cc1csc(SCC(=O)Nc2cccc3nsnc23)n1,"inconclusive [inhibitor, single point]"
24,Clc1cccc(Cl)c1CSc1nnc(-c2sccc2-n2cccc2)o1,"inconclusive [inhibitor, partial curve]"

row,Compound,Potency
1,C/C(=N\NC(=O)c1ccn(C)n1)c1ccc(NC(=O)C2CCCC2)cc1,inactive
2,CCNc1ccc(Br)cc(C(=O)/C=C/c2ccc(Cl)cc2)c1=O,active: 25.1 µM
3,CCC(C(=O)OCC(=O)Nc1ccc(C(N)=O)cc1)c1ccccc1 (stereo not given),inactive
4,O=C(CCCc1nc2ccccc2s1)Nc1ccccc1,inactive
5,CC(C)CCNC(=O)NC(=O)CSc1nnc2ccccn12,"inconclusive [inhibitor, single point]"
6,COC(=O)c1[nH]c2cc(OC)ccc2c1NC(=O)CN1CCN(c2cccc(C)c2)C(C)C1 (stereo not given),"inconclusive [inhibitor, single point]"
7,Cn1ncc(Cl)c1C(=O)NCc1ccco1,"inconclusive [inhibitor, single point]"
8,CC1CCN(C(=O)CSc2nnc(-c3cc4ccccc4cc3O)n2Cc2ccco2)CC1,"inconclusive [inhibitor, single point]"
9,CC1CCCCN1S(=O)(=O)c1ccc(N(C(=O)c2cnccn2)C(C(=O)NC2CCCCC2)c2cccs2)cc1 (stereo not given),active: 8.91 µM
10,c1ccc(Cn2nnnc2CN2CCN(c3ncccn3)CC2)cc1,active: 11.2 µM
11,C=CCOC(=O)c1[nH]c2c(c1C)C(=O)CC(c1ccco1)C2 (stereo not given),"inconclusive [inhibitor, single point]"
12,C/C(=N\S(=O)(=O)c1ccc(C)cc1)N1CCN(S(=O)(=O)c2ccccc2)C1,active: 3.98 µM
13,Cc1cc(C)n(-c2nc(C)nc(N)n2)n1,inactive
14,COc1ccccc1NC(=O)Cn1c(CCC(=O)O)ccc1-c1ccc(C)cc1,inactive
15,Cc1ccc(NC(=O)O/N=C2\CCCCC2c2ccc([N+](=O)[O-])cc2[N+](=O)[O-])cc1 (stereo not given),"inconclusive [inhibitor, partial curve]"
16,O=C(OC(C(=O)NC1CCCC1)c1cccnc1)C1=Cc2ccccc2OC1 (stereo not given),"inconclusive [inhibitor, single point]"
17,CC1=C(C(=O)NCCN2CCOCC2)C2(CCC(C)CC2)OC1=O (stereo not given),inactive
18,CC1CCCCN1Cc1c(O)ccc2c(=O)c(-c3nc4ccccc4s3)c(N)oc12 (stereo not given),"inconclusive [inhibitor, partial curve]"
19,Cc1ccc(C(=O)N/C(=C/c2ccc(-c3cc(C(F)(F)F)ccc3Cl)o2)C(=O)NCc2cccnc2)cc1,"inconclusive [inhibitor, single point]"
20,COC(=O)c1nn(-c2ccc(-c3ccccc3)cc2)cc1O,"inconclusive [inhibitor, single point]"
21,COC(=O)c1cn(C)c2ccc(S(=O)(=O)N3CCCC3)cc2c1=O,"inconclusive [inhibitor, single point]"
22,NC(=O)C1(N2CCCCC2)CCN(C2CC(=O)N(Cc3ccc(N4CCCC4=O)cc3)C2=O)CC1 (stereo not given),"inconclusive [inhibitor, single point]"
